Here are results for 22 molecules from article PMC12136788.

To fix the notation:
B1: chr6:13577978:13577979:-_ENSMUSG00000042742_ENSMUST00000045235|mus_mus|FALSE|FALSE (ssRNA)
RNA: GGGAGUUCUACAGUCCGACGAUCAUAUAAAAAUUUGUCACCAAUUUCAAAAAGUUCAGGAAUACUGGAUUGUUAGAUGAAACUGAGUAGAAACUGUUUUCUGCAGAAGGUAACAAUUUAAAGAAAAAGACAAAUAUGUACCACCAACAGAGGAUUGAGCAUCA
B2: chr1:202702741:202702742:-_ENSG00000117139_ENST00000367264|hu_mus|motif|central (ssRNA)
RNA: GGGAGUUCUACAGUCCGACGAUCUUCAGGAAGACGAACUCGUAUACGCUGUAGGGAGGCCAGCAGAGGCAGAAUUUUCUCGGAUGGAGGCUUCUCUGACCUCCGACAGUGAGGACAAAGCCAGAUUCGGGAGCUUUGUGAAAUCAACAGAGGAUUGAGCAUCA
B3: 55459207_55460516_229_CDS_ENSG00000143947_ENST00000402285|human|control|control (ssRNA)
RNA: GGGAGUUCUACAGUCCGACGAUCCGUAUCCGAGGGUUCAACCUCGAGGGUGAUGGUCUUCCCCGUAAGGGUUUUCACGAAAAUCUGCAUUUUGGUGGCGGCUCCACUUCCAGAAGCGGUGAUGGGCAGAGAAUCAGCAAUCUACAACAGAGGAUUGAGCAUCA
B4: chr13:48664549:48664550:-_ENSG00000136146_ENST00000378586|hu_hu|FALSE|FALSE (ssRNA)
RNA: GGGAGUUCUACAGUCCGACGAUCUGGUUUUCCUCUCCAGCCUGUAACAACUUUUGGUUUCUUGAAAUUGCCAGCAUUUCUAUAAGUUCCCACUCGAAGACGCAGCCAUUUUCCCCAGAGUCCCGCCACCGGCGCACGCGCAGACAACAGAGGAUUGAGCAUCA
B5: 75309900_75310020_3645_CDS_ENSMUSG00000020850_ENSMUST00000102510|mouse|control|control (ssRNA)
RNA: GGGAGUUCUACAGUCCGACGAUCGGUGAACUCUUCAUAGCUGGUACGGCACUUAGGCAGGAUGCGGCACUCAAAGCCACACAUGUUGAAUAGCAGGUUGGGGUUGUCUUUACUGUACACAGACACAAAGCUAUUCUCCCACUGCAACAGAGGAUUGAGCAUCA
B6: 10741114_10743348_1180_CDS_ENSMUSG00000024294_ENSMUST00000052838|mouse|control|control (ssRNA)
RNA: GGGAGUUCUACAGUCCGACGAUCCACUCCUCGCACCACUCUGGCACCAGCAAAGAUUCCUCUGGCUGUAAUCUUCUUAGAUUUUCUACGAGACUCUAACAGAACCCGUUCACUUCCUGGUGUAGUAAUCCUAUAAAAGCGAUGCAACAGAGGAUUGAGCAUCA
B7: chr14:78183846:78183847:+_ENSG00000119705_ENST00000557342|hu_hu|hu_hu_hu_mus_False|8_58 (ssRNA)
RNA: GGGAGUUCUACAGUCCGACGAUCUCUCAGAAAUCUUUCUUCAUCAGAUGUUUGAGCUCCGUGCAAAGCCUUUGCUCUUCUAGUGUGAACGUGGAUCUAUGGGAGGGAAAGCACUGUCAGAAAAGGUUGUAGUGCAUUUAAAGACAACAGAGGAUUGAGCAUCA
B8: chr17:60770872:60770873:+_ENSG00000011028_ENST00000303375|hu_hu|hu_hu_hu_mus_True|8_38 (ssRNA)
RNA: GGGAGUUCUACAGUCCGACGAUCUCUUUAAAAAAAAAAAAAAAAAGACAAACAAUAAUAGCACAUUUCGAGAAUCAAGAACUACAAUAGAGGGUCCAUGUCUUCGAUUUGUUCACAUCGUCCUGCAACGCUGUCGCGGGACUGCAACAGAGGAUUGAGCAUCA
B9: chr14:76904430:76904431:+_ENSMUSG00000022010_ENSMUST00000022587|mus_mus|mus_mus_mus_hu_True|8_48 (ssRNA)
RNA: GGGAGUUCUACAGUCCGACGAUCUGCAGCCAAAAACACCCUCGUGGAAAAAAAGAGGGAACACCAGCAGCCUUGUAUAAGCUAGAUAAAACCGCCUGGCUUUCCGCAGCCCAGGGAGAAACAGAAAUGGUGCUGGCUAAUUUACAACAGAGGAUUGAGCAUCA
B10: chr6:155153589:155153590:+_ENSG00000213079_ENST00000417268|hu_hu|FALSE|FALSE (ssRNA)
RNA: GGGAGUUCUACAGUCCGACGAUCAGUAACAUUGUCUACGCUUUGUCUUCCAGGAGCUAAAAAAGGUCUUUCUGGUUGACUAAAAAUAUCUCCUGGAGGAAAAGGUCCACGGGGUGGUGGAUGAAGAGCUGAAUCAAGUACCGACAACAGAGGAUUGAGCAUCA
B11: chr7:135839593:135839594:+_ENSMUSG00000042105_ENSMUST00000151237|mus_mus|motif|central (ssRNA)
RNA: GGGAGUUCUACAGUCCGACGAUCCUGAGAGUCAGUUAACCAGAGUAAGGCUCUAAAGGAUGCCAGAGACAUUGAUACCUGCGGGAAUAUGCCUACAGCUUUCUCACUCUGGGUUACAGAAGAGGUUCUUGGUGGUUAGUUACUCAACAGAGGAUUGAGCAUCA
B12: 50087819_50087939_391_5pUTR_ENSG00000168282_ENST00000305386|human|control|control (ssRNA)
RNA: GGGAGUUCUACAGUCCGACGAUCCUGCUUCUGCACGGAAGGGGCGGGCGGGCGGCGGCCGUCGCCUUGGCCUGUCACGGUCGGAACUGGCCCCCGCGGCUGCCCUCGCUAACUCAUCCCGGGCCCCGGGGGUCCUGGGGCCCGCAACAGAGGAUUGAGCAUCA
B13: chr4:71639242:71639243:+_ENSG00000018189_ENST00000226328|hu_mus|FALSE|FALSE (ssRNA)
RNA: GGGAGUUCUACAGUCCGACGAUCUCCAUCCCCUUCACUACCUUUACUACUGUUUCCAUCUUUGAGAUACAUCGAAAAAUCUAUAACUCCAACCUGAGAGUCCAGGUCUUCUCCUUUCAUGCAGAAAUUGGCAUCGAUGACAUUCAACAGAGGAUUGAGCAUCA
B14: chr16:21666878:21666879:+_ENSG00000197006_ENST00000396014|hu_mus|motif|central (ssRNA)
RNA: GGGAGUUCUACAGUCCGACGAUCUUUAAAAACACUCCCUUACACACUACAAAGAAAGAAUUAGUAUUUUGGCUUUUUAAAUUCCGGCAUGAUACUGAGAAUGACAGUCCCCAGAGGUCCCCCUCACAUCACUGGAUGCAUCUCCAACAGAGGAUUGAGCAUCA
B15: chr9:42776432:42776433:-_ENSMUSG00000059495_ENSMUST00000165665|mus_mus|FALSE|FALSE (ssRNA)
RNA: GGGAGUUCUACAGUCCGACGAUCGUUCAACUCAGUAGUGAUUCAGUUUCGAAAACCUCUUUCUUCUCUCCCAAAUCCCAACUAUCAAUAGAAAAGACAACGACAAGGGAAAUCCACCCAUUUUCAAGUGCCUGCCAUUUAGUGCAACAGAGGAUUGAGCAUCA
B16: chr1:44156729:44156730:-_ENSMUSG00000026049_ENSMUST00000150911|mus_hu|FALSE|FALSE (ssRNA)
RNA: GGGAGUUCUACAGUCCGACGAUCAAGGUAUUUUUAAUUUAACCUCUGUAUGACUCAUUUUCACUGUUGAAUAACAAACUUAAAGUGCAUUUACAUCUGAGAAGCAAAGGACAUCUCCCCGGGAAGGCAAAAGUGGCCGCGGGCCAACAGAGGAUUGAGCAUCA
B17: 91004473_91005321_2523_CDS_ENSMUSG00000030091_ENSMUST00000032179|mouse|control|control (ssRNA)
RNA: GGGAGUUCUACAGUCCGACGAUCCGAGACUGUCUGCAAACCAUGUAGUUUCUUUUGGCCAUUCCCAUCAUCCUGGGAUACCAGCUGCAUGGGCUGGUCAAGCUCAAUGCUGGCCAGCAAUGGCCGGGAGGACUCCCACUGGAUCAACAGAGGAUUGAGCAUCA
B18: chr3:9412954:9412955:+_ENSG00000134077_ENST00000452837|hu_mus|hu_hu_hu_mus_False|48_108 (ssRNA)
RNA: GGGAGUUCUACAGUCCGACGAUCGGUUGAUACAUCCUCUUUGAUGGCUGGAUUUUCAUAAUAGUCCAAGAUAUGUGAAUCUGAAGUAUGGCUAGUGUGCUUUUUCUUACCAUCUUUCUCAUCUGCUUUGUCUCCUUGUCCACACAACAGAGGAUUGAGCAUCA
B19: chr8:3623242:3623243:+_ENSMUSG00000087687_ENSMUST00000156380|mus_mus|FALSE|FALSE (ssRNA)
RNA: GGGAGUUCUACAGUCCGACGAUCUCUGCUGGGCAGCUUGAAGAAGUCUCUCUUCUUUCUGCUUCCGGAUCUUCUGCUUAAAUUCUUCUAGCUCCUGGCGCUGACCCUCCUUCUCUCUUGGCCACAGCUCCCUCUUACGCUGGACAACAGAGGAUUGAGCAUCA
B20: 138450947_138451067_2129_CDS_ENSG00000189184_ENST00000507846|human|control|control (ssRNA)
RNA: GGGAGUUCUACAGUCCGACGAUCUAUGGUAGGCACCAAUGUGAUGUCCCCUUUGUGAAUCUGCCGGGAUGGCCUUUUUGGGUGGUGCUGGUAAGUUGAUUCGGCCACCCUGCAGUUAUAGGAUCUAGUGUCUUUCUUCUCGCGCAACAGAGGAUUGAGCAUCA
B21: chr4:107252891:107252892:+_ENSG00000164022_ENST00000394701|hu_mus|FALSE|FALSE (ssRNA)
RNA: GGGAGUUCUACAGUCCGACGAUCAGGGUGCUUCUUGGCAGUAACAAUACAACCAAUUCGAAGAUCCAGACGCGAUGCGUCGAUAGGCUUGGAGUCAGUACUUGCUGCUGCCGACUGCUGCUUCUCCUUUUUCUCUCCUUUCUUCAACAGAGGAUUGAGCAUCA
B22: chr12:42180722:42180723:-_ENSMUSG00000036295_ENSMUST00000043884|mus_hu|mus_mus_mus_hu_True|8_38 (ssRNA)
RNA: GGGAGUUCUACAGUCCGACGAUCCUGUAGGAGAAGAAUCUGUGUGUUAGCUGGCAAUCUGGCUGGGAAAGUUAAAAGACCUAAAUCAUUACAAUCCACUGUCGAUGCUUCCAUAUAAAUGGAUCUGGGGGUAAACCAAGGCCUCAACAGAGGAUUGAGCAUCA

The other results are listed elsewhere or left out.

The target in this test is T1, UNK ZnF1-3 (human, UniProt Q9C0B0 31-174).
T1 sequence: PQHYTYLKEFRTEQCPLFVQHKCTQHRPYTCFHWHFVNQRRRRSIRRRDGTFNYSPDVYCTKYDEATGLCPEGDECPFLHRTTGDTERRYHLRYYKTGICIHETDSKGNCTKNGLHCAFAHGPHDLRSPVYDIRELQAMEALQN
Description: nsRBNS (natural sequence RNA bind-n-seq); RBNS binding buffer (assumed for nsRBNS): 25 mM Tris pH 7.5, 150 mM KCl, 3 mM MgCl2, 0.01% Triton X-100, 500 ug/ml BSA, 20 U/ml SUPERase-In, 4 C; UNK is unkempt and MSI1 is Musashi-1; names of the RNAs are library labels; protein concentration not given here; high values mean tight binding.
Molecule B1 gave a binding signal of 1.07 enrichment R.

As to B2, the binding signal stood at 1.06 enrichment R. The molecule B3 yielded a binding signal of 1.28 enrichment R.

Consider B4, for which the binding signal was 1.39 enrichment R.

On to B5, for which the binding signal was 1.11 enrichment R.

In turn, B6 displayed a binding signal of 1.07 enrichment R. Turning to B7, the binding signal came to 1.27 enrichment R. The result for B8 reads 1.64 enrichment R; that for B9, 2.19 enrichment R. The same measure for B10: 0.733 enrichment R; for B11: 0.959 enrichment R. The result for B12 reads 0.675 enrichment R. In turn, B13 had a binding signal of 1.03 enrichment R. The same measure for B14: 1.35 enrichment R. As for B15, the binding signal was 1.65 enrichment R. The result for B16 reads 1.07 enrichment R; that for B17, 0.481 enrichment R. With B18, the binding signal came to 0.431 enrichment R. The result for B19 reads 0.536 enrichment R. The same measure for B20: 0.561 enrichment R; for B21: 0.583 enrichment R; for B22: 1.46 enrichment R.
